{"source": "PubChem BioAssay AID485294", "about": "(National Center for Advancing Translational Sciences (NCATS), 2010)", "note": "In all, about 370,000 compounds went through this assay and about 150 (0.041%) were called active. This list was built around the results that the source calls inconclusive (neither active nor inactive); the mix of calls is not that of the screen. Calls come from the whole dose curve; as a rule, active = well fitted inhibition curve with a large enough effect; inconclusive = small, poorly fitted or top-dose-only effect; inactive = flat fitted curve, though single readings scatter. No potency is given beside an inconclusive call; the fits are too rough. Potency is the fitted concentration of half-maximal effect; tags give direction and shape of the fitted curve."}
{"target": "Beta-lactamase (Escherichia coli (strain K12)) (UniProt P00811)", "sequence (P00811 whole entry, looked up)": "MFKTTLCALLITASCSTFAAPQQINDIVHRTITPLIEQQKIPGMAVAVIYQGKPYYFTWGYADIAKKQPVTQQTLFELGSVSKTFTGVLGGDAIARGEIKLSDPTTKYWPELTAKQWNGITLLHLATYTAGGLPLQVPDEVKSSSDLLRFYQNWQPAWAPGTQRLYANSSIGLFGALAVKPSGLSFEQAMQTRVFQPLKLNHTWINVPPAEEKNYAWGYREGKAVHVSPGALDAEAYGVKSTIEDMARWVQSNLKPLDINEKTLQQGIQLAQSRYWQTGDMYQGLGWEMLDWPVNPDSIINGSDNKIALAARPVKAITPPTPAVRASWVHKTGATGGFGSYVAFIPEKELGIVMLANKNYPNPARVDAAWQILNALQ", "experiment": "qHTS Inhibitors of AmpC Beta-Lactamase (assay with detergent); note: nearly all actives have a fitted effect of over 25% in size;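 for activity change, negative = inhibition: 0% = no-compound wells and -100% = no-enzyme wells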", "conditions": "AmpC hydrolysis of nitrocefin, absorbance 480 nm, 0.01% Triton; activity change, negative = inhibition: at 114 µM (top of the series)", "procedure,_shortened": "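20 mM phosphate pH 7.0 + 0.01% (detergent screen) or 0.0001% Triton X-100; 5.3 nM AmpC reagent; cpd preinc 15 min RT; nitrocefin (800 uM stock) to start; A480 q20 s × 4 min; Activity was normalised to no-enzyme and no-compound control wells.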"}
{"smiles": "O=C(Nc1ccc(C(=O)N2CCOCC2)cc1)Nc1cccc(Cl)c1", "Potency": "inconclusive [inhibitor, full curve]"}
{"smiles": "O=C(Nc1ccon1)c1csc2c1CCCC2", "Potency": "inconclusive [inhibitor, single point]"}
{"smiles": "CCC(=O)Nc1ccc2nc(SCCOc3ccc(C)cc3)sc2c1", "activity change, negative = inhibition": "inactive: 15%"}
{"smiles": "C/C(=N\\Nc1ccccc1)c1c(O)[nH]c(=O)[nH]c1=O", "activity change, negative = inhibition": "inactive: 5.28%"}
{"smiles": "c1ccc2c(c1)NC1(CCCC1)n1c-2nc2ccccc21", "Potency": "inconclusive [inhibitor, partial curve, poor fit]"}
{"smiles": "Cc1ccc(N=C2NC(=O)c3cc([N+](=O)[O-])ccc32)cc1", "Potency": "inconclusive [inhibitor, full curve, poor fit]"}
{"smiles": "O=C(CSc1nnc(C2COc3ccccc3O2)o1)N1CCCC1", "note": "(stereo not given)", "activity change, negative = inhibition": "inactive: 0.861%"}
{"smiles": "O=C(NCCSc1ccccc1)c1ccccc1", "Potency": "inconclusive [inhibitor, full curve]"}
{"smiles": "O=C(NCc1ccco1)c1ccc([N+](=O)[O-])cc1Cl", "Potency": "inconclusive [inhibitor, partial curve, poor fit]"}
{"smiles": "O=Cc1ccc(OCc2nnsc2Cl)cc1", "Potency": "inconclusive [inhibitor, full curve, poor fit]"}
{"smiles": "Cc1ccc(NC(=O)Cn2nnc(C(=O)NCc3ccc4c(c3)OCO4)c2N)cc1", "activity change, negative = inhibition": "inactive: -0.277%"}
{"smiles": "COc1ccc(NC(=O)CSc2cc(-c3ccccc3)nc(C)n2)cc1", "Potency": "inconclusive [inhibitor, full curve, poor fit]"}
{"smiles": "CCSc1nnc(NC(=O)CN2C(=O)N(C)C3(CCCCC3)C2=O)s1", "activity change, negative = inhibition": "inactive: 0%"}
{"smiles": "COc1cccc(-c2csc(N3CCN(C(=S)Nc4ccc(Cl)cc4)CC3)n2)c1", "Potency": "inconclusive [inhibitor, partial curve]"}
{"smiles": "COc1ccc(/C=N/n2cc(-c3ccccc3)nc2N)cc1", "activity change, negative = inhibition": "inactive: 2.26%"}
{"smiles": "Cc1nonc1OCCNc1ccc([N+](=O)[O-])cc1", "Potency": "inconclusive [inhibitor, full curve, poor fit]"}
{"smiles": "COC(=O)c1cccc(S(=O)(=O)N(Cc2ccco2)Cc2cc3cc(OC)c(OC)cc3[nH]c2=O)c1", "Potency": "inconclusive [inhibitor, full curve, poor fit]"}
{"smiles": "CCOc1cccc(CN2CCC(n3nccc3NC(=O)CCCc3ccccc3)CC2)c1", "activity change, negative = inhibition": "inactive: 1.82%"}
{"smiles": "CCOc1ccc(Nc2nc(N)nc(CSC(=S)N3CCOCC3)n2)cc1", "activity change, negative = inhibition": "inactive: -3.13%"}
{"smiles": "O=C(COc1ccc([N+](=O)[O-])cc1)N(C1CCCCC1)C1CCS(=O)(=O)C1", "note": "(stereo not given)", "Potency": "inconclusive [inhibitor, partial curve, poor fit]"}
